This note sets out measurements from article PMC10256215.

Chains of the proteins cited; added tags and fusions are not shown.
UniProt P13164: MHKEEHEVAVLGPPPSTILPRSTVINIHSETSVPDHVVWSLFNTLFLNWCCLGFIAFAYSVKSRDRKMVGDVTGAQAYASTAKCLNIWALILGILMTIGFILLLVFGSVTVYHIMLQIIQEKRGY

The target in the assay is HA-tagged IFITM1 (human) (UniProt P13164). Description: co-IP; 293T cells co-transfected for 24 h with FLAG- and HA-tagged constructs; IP with anti-FLAG, anti-HA or control IgG; immunoblot with anti-FLAG and anti-HA.

These are yes or no findings as the source states them, for the method shown. In cells and extracts the contact can be indirect. Some results given as binding are weak or reduced against the parent protein; the word gives no strength. Where a sequence is shown, tags or fusion partners need not be part of it.

B1: FLAG-tagged CERT (protein, UniProt Q9Y5P4 1-624)
chain: MSDNQSWNSSGSEEDPETESGPPVERCGVLSKWTNYIHGWQDRWVVLKNNALSYYKSEDETEYGCRGSICLSKAVITPHDFDECRFDISVNDSVWYLRAQDPDHRQQWIDAIEQHKTESGYGSESSLRRHGSMVSLVSGASGYSATSTSSFKKGHSLREKLAEMETFRDILCRQVDTLQKYFDACADAVSKDELQRDKVVEDDEDDFPTTRSDGDFLHSTNGNKEKLFPHVTPKGINGIDFKGEAITFKATTAGILATLSHCIELMVKREDSWQKRLDKETEKKRRTEEAYKNAMTELKKKSHFGGPDYEEGPNSLINEEEFFDAVEAALDRQDKIEEQSQSEKVRLHWPTSLPSGDAFSSVGTHRFVQKPYSRSSSMSSIDLVSASDDVHRFSSQVEEMVQNHMTYSLQDVGGDANWQLVVEEGEMKVYRREVEENGIVLDPLKATHAVKGVTGHEVCNYFWNVDVRNDWETTIENFHVVETLADNAIIIYQTHKRVWPASQRDVLYLSVIRKIPALTENDPETWIVCNFSVDHDSAPLNNRCVRAKINVAMICQTLVSPPEGNQEISRDNILCKITYVANVNPGGWAPASVLRAVAKREYPKFLKRFTSYVQEKTAGKPILF
With B1, the binding entry is recorded as “no binding”.

B2: FLAG-tagged OSBP (protein, UniProt P22059 1-807)
chain: MAATELRGVVGPGPAAIAALGGGGAGPPVVGGGGGRGDAGPGSGAASGTVVAAAAGGPGPGAGGVAAAGPAPAPPTGGSGGSGAGGSGSAREGWLFKWTNYIKGYQRRWFVLSNGLLSYYRSKAEMRHTCRGTINLATANITVEDSCNFIISNGGAQTYHLKASSEVERQRWVTALELAKAKAVKMLAESDESGDEESVSQTDKTELQNTLRTLSSKVEDLSTCNDLIAKHGTALQRSLSELESLKLPAESNEKIKQVNERATLFRITSNAMINACRDFLMLAQTHSKKWQKSLQYERDQRIRLEETLEQLAKQHNHLERAFRGATVLPANTPGNVGSGKDQCCSGKGDMSDEDDENEFFDAPEIITMPENLGHKRTGSNISGASSDISLDEQYKHQLEETKKEKRTRIPYKPNYSLNLWSIMKNCIGKELSKIPMPVNFNEPLSMLQRLTEDLEYHELLDRAAKCENSLEQLCYVAAFTVSSYSTTVFRTSKPFNPLLGETFELDRLEENGYRSLCEQVSHHPPAAAHHAESKNGWTLRQEIKITSKFRGKYLSIMPLGTIHCIFHATGHHYTWKKVTTTVHNIIVGKLWIDQSGEIDIVNHKTGDKCNLKFVPYSYFSRDVARKVTGEVTDPSGKVHFALLGTWDEKMECFKVQPVIGENGGDARQRGHEAEESRVMLWKRNPLPKNAENMYYFSELALTLNAWESGTAPTDSRLRPDQRLMENGRWDEANAEKQRLEEKQRLSRKKREAEAMKATEDGTPYDPYKALWFERKKDPVTKELTHIYRGEYWECKEKQDWSSCPDIF
Turning to B2, the binding entry is given as “binds”.
